From the antibiotic and cytotoxicity screens of Wong et al. (2023)
This is one part of the list.

test system: S. aureus RN4220; experiment: growth inhibition call (relative growth <= 0.2); details: 50 µM

Growth inhibition call, inactive:
CC(=O)C1CCC2C3CCC4=CC(=O)CCC4(C)C3CCC12C (stereo unspecified), CC12CCC(=O)C=C1C=CC1C2CCC2(C)C1CCC21CCC(=O)O1 (stereo unspecified), COc1c(-c2coc3cc4c(cc3c2=O)CC(O)C(C)(C)O4)ccc2c1C=CC(C)(C)O2 (stereo unspecified), O=C(O)C[C@@H]1CC[C@@H]2[C@H](COC[C@@H](O)CN2S(=O)(=O)c2ccc(F)cc2)O1, C[C@H]1CN(C(=O)CSc2nnc3c4ccccc4n(Cc4cccc(Cl)c4)c3n2)CCN1C(=O)c1ccccc1F, CCCNC(=O)N1C[C@H](C)[C@@H](OC)CN(C)C(=O)c2ccc(NS(=O)(=O)CC(F)(F)F)cc2OC[C@@H]1C, O=C(CCCCCC(=O)N/N=C/[C@H](O)[C@@H](O)[C@H](O[C@@H]1O[C@H](CO)[C@H](O)[C@H](O)[C@H]1O)[C@H](O)CO)NO, O=C(O)c1cc2ccccc2c(Cc2c(O)c(C(=O)O)cc3ccccc23)c1O.OCCOCCN1CCN(C(c2ccccc2)c2ccc(Cl)cc2)CC1, C[C@@H]1CCCCO[C@H](CN(C)S(=O)(=O)c2ccccc2)[C@H](C)CN([C@@H](C)CO)C(=O)c2cc(NC(=O)Nc3cccc4ccccc34)ccc2O1, CC(C)NC(=O)Nc1ccc2c(c1)C(=O)N([C@@H](C)CO)C[C@@H](C)[C@@H](CN(C)S(=O)(=O)c1cccs1)O2, CCCN(C)C[C@H]1OCCCC[C@@H](C)Oc2ccc(NC(=O)Nc3ccccc3)cc2C(=O)N([C@H](C)CO)C[C@@H]1C
